These results are taken from PubChem BioAssay (NCI).

This assay has as its system SF-268 CNS. The assay can be described thus: NCI-60 one-dose screen, 48 h (100 = growth as untreated, 0 = no growth, -100 = all killed).

Structures are written as SMILES. More than one record can exist for a structure, and the calls need not agree.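 Negative percent growth values reflect cell death: -40 means 40% of the cells present at the start died, and -100 means all died.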 For part of its entries the source gives two or more results. The list is limited to them. How the source made its calls: active means growth percent below 10; inactive means the rest. There may be further records. The screen tested this drug many times, at the concentration stated with the values; one value stands for one run. Marks such as (2×) count equal records among those shown.

Regarding `COc1cccc2c1C(=O)c1c(O)c3c(c(O)c1C2=O)C[C@@](O)(C(=O)CO)C[C@@H]3OC1CC(N)C(O)C(C)O1` (stereo not given in full), the growth result (0.25 µM, runs of 2018) was “inactive: 32.7, 33 (2×), 34.2, 33.6, 34.8, 34.9, 36.5, 33.1, 33.2, 30.6, 37.4, 35.2, 33.4, 35.9, 33.8, 30.2 (2×), 33.3, 33.9, 34, 37.5, 34.4, 30, 29.3, 26.4, 27.7, 34.6, 34.3, 21.6, 35.1 (2×), 31.4, 35.6, 25.4, 22.6, 36.3, 36.1, 32.5, 37, 39.5, 39.9, 39.6, 39.1, 34.5, 20.7, 17.5%”; the growth entry (0.25 µM, runs of 2019) was “inactive: 27.1, 18.1, 22.8, 17.6, 20.8, 22.5, 21.3, 21.6, 19.5, 22.6, 21.9, 18, 32.3, 26.4, 21.2, 30.9, 24.3 (2×), 25.3, 22.4, 27.6, 31.2, 20.7, 29, 23.8, 24.1, 24.8, 23, 28.3, 26, 35.1, 25.2, 25.6, 35.7, 31.5, 27.2, 32.6, 32.7, 23.7, 28.7, 24.6%”; the growth entry (0.25 µM, runs of 2020) is “inactive: 27, 27.3, 33.6, 31.3, 30.4, 29.3, 24.6, 35.2, 34.8, 29.7, 35.8, 30.7, 32.7, 33, 51.4, 31.8, 42.1, 37.4, 33.5, 37.8, 37.5, 29.6, 33.1, 41.6%”; the growth result (0.25 µM, runs of 2021) is “inactive: 42.2, 50.4, 32.9 (2×), 35.9 (3×), 33.8, 30, 30.9 (2×), 36.8 (2×), 35.4 (2×), 31, 34.6 (2×), 34.4, 36, 35.5, 35.2, 30.5, 26.5, 25.6, 30.4, 26.8, 28.8, 29.4, 30.2, 29.6, 36.9, 27.7, 35.6, 38.2, 36.1, 30.6, 29, 41.7, 31.2, 28.6, 31.3, 26.7 (2×), 30.3, 24.6 (2×), 26.3, 33.7, 31.7, 32%”; the growth entry (0.25 µM, runs of 2022) was “inactive: 14.3, 15.1, 22.5, 17.5, 18.4, 25.5, 25.6, 30.8 (2×), 25.1, 32.7, 38.2, 21.7, 35.9, 26.2, 30.7, 21.5, 62.8, 73.2, 65.6, 58.3, 76.1, 28.8, 25.3, 44.1, 32.5% and active: 1.77%”; the growth entry (25 µM, runs of 1991) is on record as “active: -15.7, -50.7, -52.6, -60.8, -100, -57.4, -60.6, -55, -48.2, -40.9, -62.8, -29.7, -53.4, -54.6, -51.8, -50.8, -50.1, -54.2, -50.2%”. Further, the growth result is, setting by setting: (25 µM, runs of 1992) “active: -51.8, -42.7, -53.7 (2×), -40.2, -49 (3×), -54.8, -52.6, -60.3, -50.1, -58.1, -49.1, -58.4 (2×), -49.7, -47.8, -55.9, -61, -52.2, -53.4, -57.4 (2×), -48.8, -40, -65, -49.5, -50.9, -73.1, -58.7, -42.4, -3.23, -43.5, -71.3, -51, -63.1 (2×), -62.8, -63 (3×), -35.2, -44.1, -44.4, -55.8, -67.8, -45.2, -94, -64, -47.6, -55.3, -67, -58.2 (3×), -54.1 (2×), -65.4, -46.6, -54.9, -43.8, -72.7, -63.9, -61.9, -66.7, -68.6, -60.4, -69.1, -5.64, -47.7 (2×), -45.9, -51.5, -51.6, -38.9, -52.9, -78.3, -48.4, -74.8, -59, -67.3, -54.5, -53.3, -49.3, -47.2 (2×), -51.2, -62.1, -27.4, -23.3, -52.8, -65.6, -66.9, -56.1, -57.8, -52.7, -39.5, -42.1, -78.5, -71.6, -36.8, -68.4, -35.5, -38.6, -63.2, -51.1 (2×), -41.6, -27.7, -42.9, -45.4, -50, -53.9, -59.6, -49.9% and inactive: 104%, 13.2%”; (25 µM, runs of 1993) “active: -46.7, -24.2, -33.7, -33.8, -13.4, -66, -20.5, -54.8 (2×), -48.1, -25.3, -52.2, -43.9, -22.1, -40.9, -42.8, -41.3, -34.4, -18.9, -67.8, -35.8, -18.3, -38.1, -36.3, -32.5, -58.9, -52.4, -28.1, -1.69, -41, -50.4, -26.8, -29.1, -27.1, -21.1, -29.9, -44, -38.3, -60.4, -27.4, -76.2, -26.4, -45.9, -50.2, -25.9, -55.2, -44.6%”; (25 µM, runs of 1994) “active: -38.9, -56.6, -48.4, -26.9, -6.43, -51.5, -41.5, -13.9, 4.19, -50.4, -42.9, -51.3, -25.5, -51.9, -30.7, -72.2, -35.1, -32.3, -47.8, -44.9, -41.2, -50.1, -35.7, -25.9, -75.7, -47.7, -39.4, -35, -49.2, -40.9, -29.8% and inactive: 80.7%, 21%, 107%”; (25 µM, runs of 1995) “active: -40.1 (2×), -30.5, -33.4, 1.93, -47.4, -53.6, -51.9, -27.1, -48.1, -49.5, -54.8, -59.2, -24.9 (2×), -47.8, -49.4, -51.2, -40.2, -50.2, -49.2, -50.8, -43.1, -70.7, -16.1, -36.1, -35.1 (2×), -51.7, -88.1, 5.47, -32, -30.9, -31.1, -32.9, -36.7, -48.4, -17.1, -29.4, -28.3, -39.6%”; (25 µM, runs of 1996) “active: -38.3, -21.9, -22.1, -22.7, -11.4, -58.8, -4.41, -11.7, -18.4, -15.8, -17.7, -24.1, -44.7, -18.1, -18.6, -30.3, -51.9, -41.5, -29.8, -26.2, -49.8, -39.5 (2×), -34.8, -43.9, -9.21, -46, -42.5, -43.5, -52.1, -45.1, -42.2, -28.2, -56.1, -46.8, -43, -46.4, -64.1, -28.9, -37.9, -52.7, -38.7, -37.7, -58.6, -38, -20.5, -34.6, 8.09, -58.7, -60, -44.1, -49.3% and inactive: 98.3%”; (25 µM, runs of 1997) “active: 3.74, -38, -15.5, -56.1, -29.4, -48.7, -51.9, -19.5, -43.4, -58, -40.9, -67, -46.3, -50.3, -37.5, -51.1 (2×), -59.4, -42.8, -47.7, -35.9, -52.8, -40, -62.1, -36 (2×), -34.2, -41.5, -50.2, -35.6, -46, -42.1, -58.5, -45.6, -40.8, -26.5, -40.7, -44.9, -49.7, -10.8, -49.5, -55.1, -52.2, -49%”. In addition, the growth entry runs as follows: (25 µM, runs of 1998) “active: -30.8, -51.9, -50.9, -27.1, -67.7, -40.3, -71.7 (2×), -46.8, -72, -86.2, -74.4, -76.5, -46.7, -62.9, -76.4, -90.8, -24.4, -43.6, -69.2, -70, -49.7, -43.5, -28.4, -35.3, 8.41%”; (25 µM, runs of 1999) “active: -91.4, -73.9, 7.34, -69.2, -73.7, -60.2, -40.3, -48.8, -33.1, -49.4, -31.4, -39.2, -15.3, -22.3, -33.9, -9.65, -12, -7.17, -26.1, -32.3, -14.6, -19.6, -22.2, -15, -9.98, 2.2, -100 (2×), -88.7 (2×), -64.1, -79.7, -40, -57.5, -6.04, -6.18, -9.21, -8.85, -22.5, 0.397, -48.1, -14.1, -48.4%”; (25 µM, runs of 2000) “active: -100% (2×), -50.3%”.
